For part of its entries the source gives two or more results. This is not the full list of results. The source may hold further records. The values listed for one entry appear to be repeats (runs, samples, wells or individuals); one of them may be the mean.
Molecular target: BCMA and GPRC5D co-expressed on NCI-H929 cells
Assay: FACS, H929 cells

Row | Substance | EC50 | Maximum mean fluorescence intensity
1 | JNJ7564 (bispecific antibody) | 34.7, 30.2, 36.4, 20.6, 32.7 nM [one table] | 1480, 1050, 807, 1590, 1710 [one table]
2 | REGN5459 (bispecific antibody) | 55.1, 61.7, 50.5, 24, 44.7 nM [one table] | 13800, 19900, 7880, 21100, 9580 [one table]

— patent EP4538294A1
